B1: LINE1-mini (parent)
chain: GGCAGAGCUCAACACAGCGUGGCAAAGUGGCUGUGGCUAGACUGCC

Read counts are not given, so values of variants with three or more changes are uncertain.

This data set covers variants of B1. Kind of data set: self-cleavage, relative activity (ratio to wild type); higher = more cleavage; in vitro, sequencing; the parent is a self-cleaving ribozyme.
For C31G U32G A39C, the self-cleavage was determined as 0.05. With U32C G36A G44U, the self-cleavage was found to be 0.04. With U32C G35A C45A the figure was 0.04; with C37U A39G G44U, 0.02. As for C31G G35U U43A, the self-cleavage came out at 0.03.

Turning to G33C G35C G36C, the self-cleavage stood at 0.02. With G33C G35A C46U the figure was 0.02. For the variant G35A A41C C46A, the self-cleavage stood at 0.04. Regarding G35U G36A G44A, the self-cleavage is 0.09.

On to C31U G36A C42U G44U, for which the self-cleavage stood at 0.05. U32A U38C G44U: the self-cleavage amounted to 0.05. In the case of U32C G33A C42U C46A, the self-cleavage came out at 0.06. Take G36U U38C G44C: the self-cleavage stood at 0.06.

As for G33U U34G C37A, the self-cleavage was 0.07. G33U C37G U38C A39G G40C: the self-cleavage worked out at 0.02.

As for U38G C42A U43G C45A, the self-cleavage was found to be 0.01.

Regarding U32A U38A A41G C46A, the self-cleavage amounted to 0.04. On to U32A G36U U38C, for which the self-cleavage was found to be 0.04. With G35C G36U C37A the figure was 0.11; with U34A C37G A39G, 0.08. The value for U34A C37G A39U was 0.01; that for U34A C37G A39C was 0.02; that for U32C C42G C45A was 0.09. Take G35A U43G G44C C46U: the self-cleavage was 0.19. With U32G G33C A39U, the self-cleavage stood at 0.01. On to U38G A41U C42A, for which the self-cleavage came to 0. On to C31U G44A C46A, for which the self-cleavage worked out at 0.01.

Consider G36A C37A G44U, for which the self-cleavage amounted to 0.04. For U32G U38A A41U, the self-cleavage was 0.02.

In the case of C37A A39C C46A, the self-cleavage is 0.11. For the variant G35C U38C G44U, the self-cleavage was 0.09. For the variant U32C G35A G36C, the self-cleavage worked out at 0.09. With C37G A39U G44U the figure was 0.08; with U32G C37A U43C, 0. With C31G C37U A41C the figure was 0.03; with C31U C37G A41U, 0.04.

Consider G33A U38A C42G, for which the self-cleavage came to 0.04. As to U34C C37U C45U, the self-cleavage turned out to be 0.03.

Turning to C31G U34G U43G, the self-cleavage is 0.02. With G35C C37A C42A, the self-cleavage turned out to be 0.04. Regarding G36U G40C C45G, the self-cleavage was determined as 0.02.

For the variant C31A U38A G40A, the self-cleavage amounted to 0.06. As to C31U G36U C37U, the self-cleavage is 0.04. On to G36A G44C C46A, for which the self-cleavage was 0.13. Regarding G35C G44C C45A, the self-cleavage was 0.05.

Turning to C31U C37U G44U, the self-cleavage came to 0.01. Regarding C31U C37A A39U, the self-cleavage amounted to 0.2. The value for C31U U32G U38G U43C C46U was 0.06; that for U38C A41U C45A was 0.12; that for C37U U38A A41U was 0. As for U34G C37A U43A, the self-cleavage was 0.09. With C31U A39C G40A U43G the figure was 0.03; with U34A C42U C46A, 0.02; with C31U G40C C42U, 0.01. With C37G U38C A39U the figure was 0.01; with U32C G33A U38A A39G, 0.04. Consider C37U U38G C46A, for which the self-cleavage was 0.04. Consider C37U U38A U43A G44A, for which the self-cleavage came out at 0.03. Regarding U34C G35C C45A C46A, the self-cleavage was 0.03. With U34A G36U A39G U43A, the self-cleavage was determined as 0.15.

Turning to G35C A39G C45G, the self-cleavage is 0.04.

For U34A G44C C46U, the self-cleavage amounted to 0.06. Regarding U32G C42U C45G, the self-cleavage was determined as 0.07. The value for C31G U32C G33A G44A was 0.03; that for U32G C37A C42U C45A was 0.05; that for G36A U43C C46G was 0.21.

Regarding U34C G35C U38C C42G, the self-cleavage amounted to 0. Turning to U32C G33A G40U, the self-cleavage came out at 0.05. In the case of C31G U43C C45U, the self-cleavage was 0.03. With C31G G35C U43A the figure was 0.03; with G33U C42A U43A C46A, 0.

As for G36C C37A U38C, the self-cleavage came to 0.1.

For C31U U32C G36U, the self-cleavage amounted to 0.16. For the variant G35C A41G C46A, the self-cleavage came out at 0.07.

With C37U U43A G44C, the self-cleavage was determined as 0.05. On to C31A G35C U38C A41C, for which the self-cleavage stood at 0.01. Take U32A U34A U38A: the self-cleavage is 0.02. Turning to G33C U34A G35U, the self-cleavage came out at 0.02. Turning to U32G G40U C45A, the self-cleavage was determined as 0.02. As for G35U C37U U38G, the self-cleavage worked out at 0.06. The value for G36A A41U U43G was 0.09; that for G33U U34C C42U was 0.07. Take U32G C45G C46A: the self-cleavage is 0.03. For G33C C42A G44U, the self-cleavage worked out at 0.02. With C31G G36U C37A the figure was 0.14; with G36A C37A G40C, 0.14. As for G33C U34A C42G, the self-cleavage was determined as 0.11. The value for U32G G35A A39G C42G was 0.05; that for C37G U43A G44A was 0.22; that for G35U C42G C45A was 0.05. Take U34C C37G G40U: the self-cleavage worked out at 0.16. With G33C G35C U43C, the self-cleavage is 0.04. With G35C G40A C42A U43G, the self-cleavage was 0.12.

For U34A G36A A41C C45U, the self-cleavage was 0. Regarding U32C U34G G36A G40U U43A, the self-cleavage was found to be 0.01. Regarding G35A U38C C45U, the self-cleavage was determined as 0.14. The value for C31U G36A A41U was 0.04; that for U34A G40U C45U was 0.13; that for C37A G40A C46U was 0.19.

Regarding C31A U32A C37A, the self-cleavage stood at 0.08.

Consider G33A G35A C42A, for which the self-cleavage amounted to 0.1. Consider G33C U34A U38G, for which the self-cleavage stood at 0.03. For the variant G33C U34A U38C, the self-cleavage stood at 0.19.

Take C31A U38A A41U: the self-cleavage was found to be 0.05.

For U34G G36A C45A, the self-cleavage came out at 0.01.

As for G33A A41C C42A, the self-cleavage was 0.02. With U38A C42U C45U, the self-cleavage stood at 0.15. With U34C G36A C37U the figure was 0.02.

Regarding C31A G35A G44A C45G, the self-cleavage stood at 0.01. Turning to C37G A41C C45A, the self-cleavage was determined as 0.03. With C31A U34C C37A the figure was 0.23; with G33A U34C C45U, 0.05; with C31A G33A C46U, 0.07.

As to G36A C42G C45G, the self-cleavage was 0.25. With G33C G35U G36C C37G the figure was 0.04. Consider C31U U38C U43G, for which the self-cleavage amounted to 0.07. As for C31U U38C U43C, the self-cleavage is 0.03.

C37G G40A G44U: the self-cleavage was 0. Take U34C C37G A41C: the self-cleavage amounted to 0.01.

As for A39G G44A C46A, the self-cleavage worked out at 0.26.

For the variant U32G C37U C45G, the self-cleavage turned out to be 0.07. As for A39U G44A C46A, the self-cleavage came out at 0. The value for G35C G40C C46A was 0; that for C31U G44U C45U C46G was 0.03; that for U32A G33U G40U was 0.

Consider C31G C42U C46U, for which the self-cleavage amounted to 0.01. For U38G G40U G44A, the self-cleavage turned out to be 0.03. Regarding G35C C37U U38A, the self-cleavage came out at 0.06. In the case of A39C A41G G44A, the self-cleavage is 0.1.

G35A A39G G40U: the self-cleavage was found to be 0.03. Consider C31G G33U G36C, for which the self-cleavage was 0.07. For C31G G35U C42G C46U, the self-cleavage is 0.03. With G35A G36C A41U the figure was 0.13; with G33A G36C A41G, 0.01. As to U38A G40C A41G, the self-cleavage is 0.11.

Regarding U38C C42G U43C, the self-cleavage came to 0.11. On to C31A U38A A41U C42G, for which the self-cleavage turned out to be 0.02. The value for G33A G36C C37U was 0.28; that for U32C G40A U43A was 0.03; that for G36A C37A C42G was 0. For the variant C37U U38A G44U, the self-cleavage is 0.14. With G33U C37G C46A, the self-cleavage was found to be 0.07.

Consider U34A G36C A39U, for which the self-cleavage stood at 0.01. In the case of G36A G40U A41C, the self-cleavage was 1.03.

In the case of U32G A39U G40C U43C G44C, the self-cleavage came out at 0.05. The value for G33U C42U U43G C45U was 0; that for G35U G44U C45G was 0.09. With G36C C45U C46A the figure was 0.22. The value for G33C U34G U43C was 0.03; that for G33A G40U C45A was 0.01; that for U32G A39C C42A was 0.04.

As for C31G C37G C45A, the self-cleavage is 0.01.

With C31G C37G C45U, the self-cleavage is 0.

For C31G U32C U34A C45U, the self-cleavage is 0.04. With G33A G35A G44C, the self-cleavage worked out at 0.08.

On to C31U U32C C46U, for which the self-cleavage came to 0.03. As to G35C C37G C42G, the self-cleavage worked out at 0.03. On to C37G G40U C45U, for which the self-cleavage came to 0.08. The value for C31U C42A G44A was 0.09. For C31G U34G A39C, the self-cleavage turned out to be 0.04. With G33U G35U C37A, the self-cleavage came to 0.04. As to G35U G36U G40A, the self-cleavage came out at 0.04.

As for C31G A39G G44A, the self-cleavage turned out to be 0. Take G35A G36U C37U: the self-cleavage worked out at 0.04. With U32G U34A C37U, the self-cleavage stood at 0.04. With C31G C37G U38G C46A the figure was 0.06. Consider C31G U38A C46G, for which the self-cleavage is 0.05.
